The campaign covered roughly 150,000 compounds. About 540 (0.36%) showed an effect of 50% or more. This is one part of the list.

This assay relates to Plasmodium falciparum. Put plainly: Primary screen in NF54 nanoGlo assay, in single point, at 2uM, 72h; a lower Z score goes with more inhibition. It counts as functional, Erythrocyte. The note with it: timepoint 72 hour.
As a reminder, the % Inhibition is the change of the read-out against control, counted positive when it falls. For `C=CCN(C)C(=O)c1cncn1-c1ccc(-c2cc(C(F)(F)F)cc(C(F)(F)F)c2)cc1`, the “% Inhibition” value stood at 15% and the Z score is reported as -1.5.
For `COCCN(CCC(=O)N1CCN(C)CC1)C(=O)c1cc(-c2ccccc2OC)on1`, the “% Inhibition” value was -6% and the Z score came out at 0.92.
Take `Cc1nnc(NC(=O)N2Cc3cc(Br)ccc3C[C@@H]2C)s1`: the “% Inhibition” value is -3% and the Z score came out at 0.49.
In the same order, the values of `CCN1CCN(C(=O)[C@H]2Cc3ccc(cc3)OCC(=O)N[C@@H](CC(C)C)C(=O)N(CCOC)CC(=O)N2)CC1(C)C` are 0% and 0.03.
Take `CC(OC(=O)CCC1NC(=O)NC1=O)c1ccc(Cl)cc1Cl` (stereo not drawn): the “% Inhibition” value came to 33% and the Z score is -3.77.
Take `CCCCCNC(=O)CNS(=O)(=O)c1ccccc1N`: the “% Inhibition” value is on record as -3% and the Z score was determined as 0.28.
For `COC(=O)c1cccc(CN(Cc2cccn2Cc2ccc(C(F)(F)F)cc2)[C@@H](C)C(C)C)c1`, the “% Inhibition” value was -22% and the Z score turned out to be 2.44.
Turning to `COCCc1noc([C@H](C)NC2CCN(c3ccccc3C)CC2)n1`, the “% Inhibition” value is -2% and the Z score is 0.22.
`CC(C1CC1)N(C)S(=O)(=O)N1CCCC1c1ncccn1` (stereo not drawn): the “% Inhibition” value is -2% and the Z score came out at 0.39.
In the case of `COc1ccc(CN2CCCN([C@H]3COC[C@@H]3O)CC2)cn1`, the “% Inhibition” value is reported as 0% and the Z score was 0.06.
For `CCOC(=O)[C@@]1(CCOc2ccccc2)CCCN(C2CCN(CC)CC2)C1`, in that order: 3% and -0.4.
For `Cn1cc(-c2cc3n(n2)CCC(=O)N3CC(=O)NC2CCCCCCC2)c2ccccc21`, in that order: -3% and 0.6.
For `CN1CCCN(C(=O)c2csc(NC(=O)c3ccc(Cl)cc3Cl)n2)CC1`, in that order: -16% and 1.51.
Turning to `Cc1cc(N2CCCC2)nc(CNC(=O)c2ccco2)n1`, the “% Inhibition” value is -12% and the Z score is 1.87.
In the case of `Cc1ccc(NS(=O)(=O)c2cc(-c3cnc(C4CC4)o3)ccc2C)c(Br)c1`, the “% Inhibition” value is -5% and the Z score is recorded as 0.93.
Take `CC[C@@]12CCCN1C(=O)N(Cc1ccc(C)cc1OC)C2=O`: the “% Inhibition” value is listed as -7% and the Z score is on record as 0.66.
Consider `O=S(=O)(C1CC1)N1CC[C@H](n2ccnn2)C1`, for which the “% Inhibition” value is given as -2% and the Z score turned out to be 0.32.
Regarding `CC[C@H]1CCCN(C(=O)c2cc(S(=O)(=O)N(C)C)oc2C)C1`, the “% Inhibition” value was -5% and the Z score was 0.52.
For `CC1CCCCC1OCC(=O)Nc1cc(C(=O)O)cs1` (stereo not drawn), in that order: 7% and -0.86.
In the case of `CN(Cc1nccs1)C[C@](C)(O)c1ccc(S(C)(=O)=O)cc1`, the “% Inhibition” value is reported as -1% and the Z score worked out at 0.06.
In the case of `Cc1nc(C)c(C)c(N2CCC(Oc3ccc4ccccc4c3)(C(=O)O)CC2)n1`, the “% Inhibition” value was 0% and the Z score is recorded as -0.03.
For `COc1ccc(C(=O)N2CCC[C@H](C(=O)NCc3ccccc3Cl)C2)c2ccccc12`, the “% Inhibition” value is listed as -14% and the Z score is 1.57.
Turning to `COc1cccc2[nH]cc(CCNC(=O)N3CC[C@@H](C(F)(F)F)C(C)(C)C3)c12`, the “% Inhibition” value is recorded as -2% and the Z score is listed as 0.22.
In the case of `CCCOCCNC(=O)c1c(C)noc1-c1ccco1`, the “% Inhibition” value is given as -4% and the Z score is given as 0.65.
For `CCn1ncnc1CNCCc1cnn(-c2ccccc2)c1`, in that order: -9% and 1.25.
On to `CC1(C)Cc2nc(N3CCOCC3)ncc2[C@@H](NCc2cccc(O)c2)C1`, for which the “% Inhibition” value is -18% and the Z score was found to be 1.54.
In the same order, the values of `c1cnc(N2CCOCC2)c(CNC(=NC2CC2)NC2CCCC2)c1` are -1% and 0.1.
Turning to `O=C1CCc2cc(S(=O)(=O)N3CC[C@@H](c4ccccc4)S(=O)(=O)CC3)ccc2N1`, the “% Inhibition” value was -10% and the Z score was found to be 1.72.
Take `COc1ncccc1CNC[C@H]1COCc2nc3ccccc3n21`: the “% Inhibition” value is listed as 8% and the Z score is reported as -0.96.
Consider `COCCN(Cc1csc(-c2ccco2)n1)[C@@H](C)C1CC1`, for which the “% Inhibition” value came to 4% and the Z score is -0.83.
For the compound `Cc1nn(C)c(C)c1OC(=O)c1cc(OCC(F)F)ccn1`, the “% Inhibition” value is -10% and the Z score came to 1.64.
Consider `NC(=O)C(c1ccccc1)N1CCCCC1Cn1cccn1` (stereo not drawn), for which the “% Inhibition” value is -7% and the Z score came out at 1.31.
`Cc1cccc(C)c1OCC(=O)NCC#N`: the “% Inhibition” value came to 3% and the Z score is listed as -0.57.
For `COc1cc2nc(N3CCc4ccccc4C3)cc(C)c2c(OC)c1OC`, the “% Inhibition” value is given as 3% and the Z score is -0.52.
On to `CCN1CCN(C(=O)c2snc(-c3ccc(C)cc3)c2N)CC1`, for which the “% Inhibition” value is listed as 4% and the Z score is on record as -0.45.
As to `O=C(COc1ccccc1)NCC(=O)N[C@H]1CCCc2ccccc21`, the “% Inhibition” value is -3% and the Z score came out at 0.6.
Consider `CN(C(=O)COc1ccc(CCO)cc1-n1nc2ccccc2n1)C1CCCCC1`, for which the “% Inhibition” value was -9% and the Z score is recorded as 1.58.
For `CN(C)[C@H]1CCN(c2nc3cc(Br)ccc3[nH]2)C1`, in that order: -4% and 0.89.
Regarding `Cc1nn(C)c(Cl)c1CN(C)C(=O)C12CCCN1CCC2`, the “% Inhibition” value is listed as -2% and the Z score amounted to 0.21.
Regarding `CC[C@H](C)[C@H](NCc1ccnn1C)C(=O)OC(C)(C)C`, the “% Inhibition” value was -6% and the Z score came out at 0.74.
In the same order, the values of `CC(C)(C(=O)N[C@H]1C[C@@](C)(O)C1)C(F)F` are 2% and -0.28.
On to `Oc1nc(-c2ccccc2)n(-c2ccc(Cl)cc2)n1`, for which the “% Inhibition” value is -1% and the Z score was determined as 0.12.
In the case of `CC(O)CNC(c1cnn(C2CCC(C)CC2)c1)C(F)(F)F` (stereo not drawn), the “% Inhibition” value is given as -16% and the Z score worked out at 1.79.
As to `CC(C)Cc1ncc2c(n1)CN(C(=O)c1n[nH]c3c1COCC3)C2`, the “% Inhibition” value is given as -6% and the Z score was 0.87.
On to `COc1cccc([C@@H](C)Nc2cc([C@H]3C[C@H](N)C3)ncn2)c1`, for which the “% Inhibition” value is given as -7% and the Z score was found to be 1.26.
As to `CCN1CCN(C(=O)C(C)N2CCCC2Cn2cc(C)cn2)CC1` (stereo not drawn), the “% Inhibition” value is -12% and the Z score was 0.98.
As for `CC1CC(C(=O)O)CN(C(=O)NCc2nc3ccccc3s2)C1` (stereo not drawn), the “% Inhibition” value is recorded as -15% and the Z score is 1.26.
Take `Cc1ccc(-n2cccn2)cc1S(=O)(=O)N1C[C@H]2CC[C@@H](C1)N(C)C2`: the “% Inhibition” value is reported as -2% and the Z score was 0.32.
`Cc1nc(-c2ccc(C)c(-n3cc(C(=O)Nc4ccc(Br)cc4F)c(C)n3)c2)no1`: the “% Inhibition” value stood at 7% and the Z score is recorded as -0.78.
Regarding `CCc1noc(CN2CCC3(CC2)OCCO3)n1`, the “% Inhibition” value turned out to be 1% and the Z score is -0.19.
For `O=C(NCc1cccc(C(F)(F)F)c1)[C@@]1(CCO)CCN(c2ncccn2)C1`, the “% Inhibition” value stood at 0% and the Z score was 0.04.
In the case of `O=C(Nc1ccccc1-c1ccc2ccccc2n1)c1ccco1`, the “% Inhibition” value is on record as -8% and the Z score is 1.31.
`O=C(CN(C(=O)Nc1ccc(Cl)c(Cl)c1)C1CC1)N1CC(=O)N(c2ccc(Cl)cc2)C1`: the “% Inhibition” value is recorded as -2% and the Z score came to 0.28.
For `Cc1n[nH]c(C)c1NC(=O)CN(C)C1CCCCC1`, in that order: -5% and 0.83.
In the same order, the values of `CC(C)c1nc(NC(=O)c2c(O)cccc2Cl)n(C)n1` are -10% and 1.34.
For `COc1ccc(Br)c(S(=O)(=O)NCC2(C)CCC2)c1`, in that order: 1% and -0.23.
With `CCCCN1CC[C@@H]2N(CCn3cc(Cl)cn3)CCC[C@@]2(CO)C1`, the “% Inhibition” value was -6% and the Z score was 1.26.
For `CC(C)[C@@H](NCCC(=O)N1CCN(C)CC1)C(=O)OC(C)(C)C`, the “% Inhibition” value was -12% and the Z score was determined as 1.33.
With `O=C(COC(=O)CC(c1ccccc1)c1ccccc1)NCc1ccc2c(c1)OCO2`, the “% Inhibition” value is listed as -14% and the Z score is 2.24.
For `CC1CN(S(=O)(=O)c2ccc3c(c2)OCCCO3)CC(C)O1` (stereo not drawn), in that order: 1% and -0.21.
For `CC(Nc1ccc2[nH]ncc2c1)C1CC1(C)C` (stereo not drawn), in that order: 8% and -1.7.
Regarding `CC(C)c1nnc(N2CCN(C)[C@]3(CCC(=O)N(C)CC3)C2)s1`, the “% Inhibition” value is recorded as 4% and the Z score is reported as -0.54.
In the same order, the values of `Cc1cc(C)c(CNC(=O)c2ccc(-n3cccn3)nc2)c(=O)[nH]1` are -1% and 0.08.
For `Cc1n[nH]c(C2CC2)c1C(=O)N1CCN(C(=O)c2ccco2)CC1`, the “% Inhibition” value was -13% and the Z score was determined as 1.15.
In the case of `FC(F)(F)CCN(CCn1cncn1)C1CCCC1`, the “% Inhibition” value is -6% and the Z score was 0.59.
`CC(O)CC1CCCN1C(=O)Cc1nc(C(F)(F)F)cs1` (stereo not drawn): the “% Inhibition” value is -7% and the Z score is on record as 0.79.
In the same order, the values of `CCc1cc(NCCS(=O)(=O)N(C)C)ncn1` are -10% and 1.27.
With `Cc1nc2n(c1C(=O)N(C)C)CCN(C(=O)c1cc(C(F)(F)F)n[nH]1)C2`, the “% Inhibition” value worked out at 10% and the Z score is -1.37.
As for `COc1ccc2c(c1)[C@H](C(=O)N(CCC(=O)O)C(C)C)CCC2`, the “% Inhibition” value is -13% and the Z score is reported as 1.82.
Consider `CCc1ccccc1OCCC(=O)N1CC2(CCOC2)C1`, for which the “% Inhibition” value is -4% and the Z score is recorded as 0.63.
In the same order, the values of `CN(C[C@H]1COCCO1)c1nnnn1CCc1c[nH]c2ccccc12` are -8% and 0.88.
Take `CC(=O)Nc1cccc(C2OC(=O)N(Cc3ccccc3)C2C(=O)NC2CC2)c1` (stereo not drawn): the “% Inhibition” value is 2% and the Z score is reported as -0.3.
For the compound `Cc1ccc(F)c2[nH]c(C(=O)N3CCCS(=O)(=O)C[C@@H]3C)cc12`, the “% Inhibition” value is listed as 1% and the Z score is reported as -0.13.
In the same order, the values of `CCOC(=O)C1c2cnc(Nc3ccc(C)c(Cl)c3)n2C(=O)NC1c1ccc(C(C)(C)C)cc1` (stereo not drawn) are -3% and 0.36.
In the same order, the values of `O=C(c1cc(F)ccc1F)N1CCCCS1(=O)=O` are 5% and -1.09.
With `Nc1ncc(S(=O)(=O)NCc2ccccc2)cn1`, the “% Inhibition” value is reported as -20% and the Z score came to 2.45.
For `C[C@H](NCCCN1CCCC1=O)c1cnccc1NC(=O)OC(C)(C)C`, in that order: 25% and -2.84.
For `CC[C@@H](C(=O)Nc1ccc2nc(NC(=O)c3ccccc3)sc2c1)c1ccccc1`, in that order: -5% and 0.46.
Regarding `COC(=O)C[C@H]1CCCN1C(=O)C(C)(C)CN1CCOCC1`, the “% Inhibition” value stood at 1% and the Z score is given as -0.2.
In the case of `CCCCc1nc(N2CCN(C(=O)c3ccc(F)cc3)CC2)c2c(-c3ccccc3)noc2n1`, the “% Inhibition” value was -1% and the Z score was determined as 0.13.
As to `CC1CN(C(=O)CCCS(=O)(=O)N2CCCC2)C(C)CN1C` (stereo not drawn), the “% Inhibition” value is listed as 0% and the Z score was -0.05.
With `Cc1cc(NC(=O)N2CCC[C@@H]2CS(N)(=O)=O)nn1C`, the “% Inhibition” value came out at 3% and the Z score was -0.45.
For `CCOc1cccc(C(=O)N[C@H]2CCN(Cc3ccccn3)C[C@@H]2O)c1`, in that order: 2% and -0.4.
Regarding `NC(=O)c1c[nH]c(-c2noc(C3CCc4ccccc4CC3)n2)c1`, the “% Inhibition” value is -6% and the Z score was determined as 0.71.

Source of the values: ChEMBL document CHEMBL4888484, “Replenishing the malaria drug discovery pipeline: Screening and hit evaluation of the MMV Hit Generation Library 1 (HGL1) against asexual blood stage Plasmodium falciparum ,using a nano luciferase reporter read-out” (2022).
